In patent US4089965A, “Thiazolylphenylguanidines as antirhinovirus agents” (American Cyanamid Company, priority 1977, dated 1978):

System: Rhinovirus strain 1B
Experiment: Protection of tissue from cytopathic effects (plaque inhibition, filter paper disc or agar overlay)
Parameters: key: +: Protects tissue from destruction by virus; .-+.: Partial protection
Conditions: 33°, 3 to 5 days
Description: Confluent monolayers of a continuous cell-line such as HeLa, HEp-2, KB or L-132, grown in plastic tissue culture dishes, were infected with one of the rhinoviruses, for example, types 1B, 2, 5, 14 or 23 and other members of the picornavirus group, including the enteroviruses, for example, coxsackie A-11 and A-21.
Protection of the tissues to the cytopathic effects of the viruses were ascertained either by means of a plaque inhibition test in which the test compound was adsorbed onto a filter paper disc and placed on the agar used to overlay the infected cell monolayers, or by incorporation into the said agar overlay. The agar overlay medium used for this purpose was of the following formulation: […]
The virus infected cell monolayers plus test compound were incubated in a humidifier atmosphere of 5% carbon dioxide at 33° for 3 to 5 days. The ability of these compounds to protect tissues from destruction by the viruses was then evident after staining the residual uninfected cells with 0.5% crystal violet in 20% ethanol.

## N=C(Nc1ccccc1)Nc1nc(-c2ccccc2)cs1 [1-(4-phenyl-2-thiazolyl)-3-phenylguanidine]
  Protection of tissue from destruction by virus: .-+.

## COC(=O)c1ccc(NC(=N)Nc2nc(-c3ccccc3)cs2)cc1 [1-(4-phenyl-thiazolyl)-3-(4-carbomethoxyphenyl)-guanidine]
  Protection of tissue from destruction by virus: .-+.
